Data published in the supplement of paper PMC4967469.
The IC50 comes from the fitted curve, where viability falls to half of the control; fits outside the tested doses are given as limits. For AUC the same curve is integrated over the 256-fold range of doses and scaled to a fraction; the more sensitive the line, the further below 1. For part of these data: The top dose, if marked as inferred, is not printed in the source and was worked back from the curve model. For part of these data: Where an entry number is given, a second screen of the drug exists; the two often differ.

How the values were obtained:
Experiment in all cases: Viability of human cancer cell lines after 72 h of drug (GDSC screen)
Nilotinib = compound: Cc1cn(-c2cc(NC(=O)c3ccc(C)c(Nc4nccc(-c5cccnc5)n4)c3)cc(C(F)(F)F)c2)cn1 [Nilotinib]; details: top dose 2 µM
Experimental: (§1)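 Human cancer cell lines in 384-well plates, medium with 10% serum, drug for 72 h over a 256-fold dose range (nine 2-fold or five 4-fold steps up to the top dose). Adherent lines were fixed and stained with the nucleic acid dye Syto60, suspension lines read with resazurin; signal relative to control wells, capped at 0 and 100%. One two-parameter sigmoid per drug and line, fitted in a mixed model over all curves with the slope shared within a line.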

KIN001-270 = compound: Cc1ccc(Nc2cc(-c3cccc(N4C(=O)c5ccccc5C4=O)c3)ncn2)cc1NS(C)(=O)=O [KIN001-270]; details: top dose 20 µM; top dose inferred
Experimental: as §1

LFM-A13 = compound: C/C(O)=C(\C#N)C(=O)Nc1cc(Br)ccc1Br [LFM-A13]; details: top dose 16 µM; top dose inferred
Experimental: as §1

Gemcitabine = compound: Nc1ccn([C@@H]2O[C@H](CO)[C@@H](O)C2(F)F)c(=O)n1 [Gemcitabine]; details: top dose 1.024 µM
Experimental: as §1

MP470 = compound: S=C(NCc1ccc2c(c1)OCO2)N1CCN(c2ncnc3c2oc2ccccc23)CC1 [MP470]; details: top dose 20 µM; top dose inferred
Experimental: as §1

TW-37 = compound: CC(C)c1ccccc1Cc1cc(C(=O)Nc2ccc(S(=O)(=O)c3ccccc3C(C)(C)C)cc2)c(O)c(O)c1O [TW-37]; details: top dose 5 µM
Experimental: as §1

T0901317 = compound: O=S(=O)(c1ccccc1)N(CC(F)(F)F)c1ccc(C(O)(C(F)(F)F)C(F)(F)F)cc1 [T0901317]; details: top dose 10.24 µM; top dose inferred
Experimental: as §1

Bicalutamide = compound: CC(O)(CS(=O)(=O)c1ccc(F)cc1)C(=O)Nc1ccc(C#N)c(C(F)(F)F)c1 [Bicalutamide]; details: top dose inferred
Experimental: as §1

AUY922 = compound: CCNC(=O)c1noc(-c2cc(C(C)C)c(O)cc2O)c1-c1ccc(CN2CCOCC2)cc1 [AUY922]; details: top dose 0.256 µM; top dose inferred
Experimental: as §1

[1] = top dose 1.024 µM, screen: GDSC drug entry 150
[2] = top dose 10 µM, screen: GDSC drug entry 1502

Cell Line | AUC (Nilotinib) | IC50 (Nilotinib) | AUC (KIN001-270) | IC50 (KIN001-270) | AUC (LFM-A13) | IC50 (LFM-A13) | AUC (Gemcitabine) | IC50 (Gemcitabine) | AUC (MP470) | IC50 (MP470) | AUC (TW-37) | IC50 (TW-37) | AUC (T0901317) | IC50 (T0901317) | AUC (Bicalutamide; [1]) | IC50 (Bicalutamide; [1]) | AUC (Bicalutamide; [2]) | IC50 (Bicalutamide; [2]) | AUC (AUY922) | IC50 (AUY922)
A431 (skin, adherent) | 0.981 | > 2 µM | 0.961 | > 20 µM | 0.956 | > 16 µM | 0.076 | < 0.004 µM | 0.935 | > 20 µM | 0.745 | 1.52 µM | 0.981 | > 10.2 µM | 0.987 | > 1.02 µM | 0.969 | > 10 µM | 0.412 | 0.00931 µM
SK-MEL-3 (melanoma, adherent) | 0.961 | > 2 µM | 0.977 | > 20 µM | 0.984 | > 16 µM | 0.559 | 0.0953 µM | 0.909 | > 20 µM | 0.696 | 1.22 µM | 0.975 | > 10.2 µM | 0.956 | > 1.02 µM | 0.983 | > 10 µM | 0.687 | 0.0587 µM
Caov-4 (ovary, adherent) | 0.98 | > 2 µM | 0.943 | > 20 µM | 0.967 | > 16 µM | 0.774 | 0.607 µM | 0.819 | 19 µM | 0.49 | 0.291 µM | 0.979 | > 10.2 µM | 0.98 | > 1.02 µM | 0.961 | > 10 µM | 0.967 | > 0.256 µM
NCI-H2029 (small cell lung carcinoma, adherent) | 0.949 | > 2 µM | 0.988 | > 20 µM | 0.992 | > 16 µM | 0.947 | > 1.02 µM | 0.912 | > 20 µM | 0.926 | > 5 µM | 0.985 | > 10.2 µM | 0.992 | > 1.02 µM | 0.992 | > 10 µM | 0.94 | > 0.256 µM
HCC1419 (breast, adherent) | 0.953 | > 2 µM | 0.971 | > 20 µM | 0.947 | > 16 µM | 0.96 | > 1.02 µM | 0.848 | > 20 µM | 0.634 | 0.856 µM | 0.981 | > 10.2 µM | 0.977 | > 1.02 µM | 0.965 | > 10 µM | 0.686 | 0.0666 µM
CAKI-1 (kidney, adherent) | 0.972 | > 2 µM | 0.959 | > 20 µM | 0.816 | 15.3 µM | 0.938 | > 1.02 µM | 0.428 | 0.72 µM | 0.449 | 0.212 µM | 0.974 | > 10.2 µM | 0.969 | > 1.02 µM | 0.952 | > 10 µM | 0.808 | 0.224 µM
BICR10 (head and neck, adherent) | 0.984 | > 2 µM | 0.984 | > 20 µM | 0.963 | > 16 µM | 0.857 | > 1.02 µM | 0.971 | > 20 µM | 0.569 | 0.499 µM | 0.97 | > 10.2 µM | 0.985 | > 1.02 µM | 0.971 | > 10 µM | 0.669 | 0.0511 µM
SCC-25 (head and neck, adherent) | 0.983 | > 2 µM | 0.916 | > 20 µM | 0.974 | > 16 µM | 0.706 | 0.265 µM | 0.906 | > 20 µM | 0.592 | 0.578 µM | 0.949 | > 10.2 µM | 0.921 | > 1.02 µM | 0.952 | > 10 µM | 0.805 | 0.15 µM
RCM-1 (large intestine, adherent) | 0.98 | > 2 µM | 0.972 | > 20 µM | 0.973 | > 16 µM | 0.796 | 0.599 µM | 0.966 | > 20 µM | 0.799 | 3.02 µM | 0.973 | > 10.2 µM | 0.985 | > 1.02 µM | 0.98 | > 10 µM | 0.83 | 0.21 µM
OV-90 (ovary, adherent) | 0.908 | > 2 µM | 0.963 | > 20 µM | 0.963 | > 16 µM | 0.458 | 0.0476 µM | 0.914 | > 20 µM | 0.478 | 0.268 µM | 0.975 | > 10.2 µM | 0.982 | > 1.02 µM | 0.956 | > 10 µM | 0.879 | > 0.256 µM
DAN-G (pancreas, adherent) | 0.991 | > 2 µM | 0.983 | > 20 µM | 0.985 | > 16 µM | 0.99 | > 1.02 µM | 0.937 | > 20 µM | 0.619 | 0.636 µM | 0.964 | > 10.2 µM | 0.99 | > 1.02 µM |  |  | 0.733 | 0.0663 µM
H2795 (mesothelioma, adherent) | 0.963 | > 2 µM | 0.953 | > 20 µM | 0.9 | > 16 µM | 0.93 | > 1.02 µM | 0.987 | > 20 µM | 0.457 | 0.239 µM | 0.987 | > 10.2 µM | 0.987 | > 1.02 µM |  |  | 0.804 | 0.126 µM
TOV-21G (ovary, adherent) | 0.943 | > 2 µM | 0.981 | > 20 µM | 0.98 | > 16 µM | 0.971 | > 1.02 µM | 0.973 | > 20 µM | 0.338 | 0.106 µM | 0.599 | 1.23 µM | 0.984 | > 1.02 µM | 0.979 | > 10 µM | 0.705 | 0.0639 µM
NCI-H1755 (lung adenocarcinoma, adherent) | 0.956 | > 2 µM | 0.984 | > 20 µM | 0.98 | > 16 µM | 0.756 | 0.402 µM | 0.775 | 9.23 µM | 0.562 | 0.475 µM | 0.963 | > 10.2 µM | 0.984 | > 1.02 µM | 0.971 | > 10 µM | 0.8 | 0.148 µM
